# The list shows a part of the results. These are enrichments in a pooled selection; single values are uncertain. Scores sum up all selected molecules that hold the word; the word was not tested alone.
# System: IMP3 KH3-4
# Assay: 6-mer SELEX enrichment z-score vs GST control; IMP3 is the RNA-binding protein IGF2BP3; higher = more enriched by binding
# Conditions: construct: KH3-4 (377-579); SELEX round: R4
# Description: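 SELEX-seq with GST-tagged IMP3 KH3-4 (Pro377-Lys579) and an N40 RNA pool, round 4. 6-mer z-score of sequence-tag enrichment normalised to the corresponding GST SELEX round; RNA k-mers written as DNA (T for U).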
# Chain of IMP3 KH3-4 (chain, as listed by the source): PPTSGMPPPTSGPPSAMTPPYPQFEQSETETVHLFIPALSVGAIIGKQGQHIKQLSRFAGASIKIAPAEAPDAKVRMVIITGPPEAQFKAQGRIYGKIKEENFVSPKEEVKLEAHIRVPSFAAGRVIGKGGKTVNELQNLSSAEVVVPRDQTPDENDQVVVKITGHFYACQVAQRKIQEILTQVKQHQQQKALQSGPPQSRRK
row,Sequence,6-mer SELEX enrichment z-score
1,GAGCAC,-0.955
2,TAGTCA,0.166
3,AGAGGC,1.32
4,AGCTTG,-0.387
5,TGTTAA,0.376
6,CAACGG,-0.642
7,GCCTTA,-0.123
8,CACAGC,-0.613
9,GGACTA,0.343
10,ACGTTT,-0.394
11,TCCAGT,0.053
12,CTGTTC,0.221
13,ACCACG,-1.25
14,TGAAGA,0.957
15,CTGAGG,-0.099
16,ACCGAT,-0.786
17,ATCGCA,0.416
18,GGTGAT,0.576
19,AGAAGG,0.786
20,CGAATT,0.074

row,Sequence,6-mer SELEX enrichment z-score
1,GCGAGA,-0.489
2,GACAGC,-0.612
3,CGGAGT,-0.327
4,AGAGTG,-0.911
5,TCGTGG,-0.141
6,TGCGTG,-0.955
7,GATTCC,-0.114
8,AACCAG,-0.849
9,ATCCCA,-1.58
10,GTAGGG,0.428
11,ACTGCG,-0.64
12,GGTGGA,0.468
13,CGAGCC,-2.95
14,TTAGTT,0.395
15,CGTATT,-0.35
16,GCCACG,-0.554
17,CAGACG,-0.857
18,GGCCTC,-0.381
19,GACCGT,-1.05
20,ACCGGC,0.148

# Source: the supplement of paper PMC6531468
